According to the supplement of paper PMC9446081:
Hit rate of the full screen: of about 39,000 compounds, about 220 (0.56%) showed activity. This is one part of the list.

Tested on: Escherichia coli K-12 BW25113
Experiment: relative growth (OD600 normalised to plate interquartile mean) (fraction); higher = less growth inhibition, active = 0.2 or less
Details: 50 µM; LB; incubation time: overnight (16-24 h)
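Note: static incubation at 37 °C against the wild-type strain, values averaged over two biological replicates.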

Compound	relative growth
C[C@H]1CCCCO[C@@H](CN(C)Cc2ccc(C(=O)O)cc2)[C@@H](C)CN([C@@H](C)CO)C(=O)c2cc(NS(=O)(=O)c3ccccc3)ccc2O1	inactive: 0.998
C[C@H]1CN([C@@H](C)CO)C(=O)c2cc(NC(=O)Cn3cnnn3)ccc2O[C@@H]1CN(C)Cc1ccc(-c2ccccc2)cc1	inactive: 0.918
Cc1noc(C)c1S(=O)(=O)Nc1ccc2c(c1)CC(=O)N([C@H](C)CO)C[C@@H](C)[C@H](CN(C)Cc1ccc(Oc3ccccc3)cc1)O2	inactive: 1.01
CNC(=O)C[C@H]1CC[C@H]2[C@@H](COC[C@H](O)CN2C(=O)Nc2ccc3c(c2)OCO3)O1	inactive: 1.01
C[C@@H]1CN([C@@H](C)CO)C(=O)c2cc(NC(=O)Cc3ccccc3)ccc2O[C@@H](C)CCCCO[C@H]1CN(C)C(=O)c1ccccc1	inactive: 0.995
O=C(C[C@@H]1C=C[C@@H](NS(=O)(=O)c2ccccc2F)[C@@H](CO)O1)NCCCN1CCOCC1	inactive: 0.987
C[C@H](CO)N1C[C@H](C)[C@H](CN(C)Cc2ccc(C(=O)O)cc2)OCCCC[C@H](C)Oc2ccc(NC(=O)NC3CCCCC3)cc2C1=O	inactive: 0.981
C[C@@H]1CN([C@@H](C)CO)C(=O)c2cccc(NC(=O)CCCCCC(=O)Nc3ccccc3N)c2O[C@@H]1CN(C)C(=O)Nc1ccccc1	inactive: 0.99
CCCC#Cc1cnc2c(c1)C(=O)N([C@H](C)CO)C[C@H](C)[C@@H](CN(C)C(=O)c1ccc3c(c1)OCO3)O2	inactive: 0.968
NCCCCCc1cnc[nH]1	inactive: 0.984
C[C@@H]1CN([C@@H](C)CO)C(=O)c2cc(NC(=O)Nc3ccc(C(F)(F)F)cc3)ccc2O[C@@H]1CN(C)CC1CCCCC1	inactive: 0.968
C[C@H]1CN([C@@H](C)CO)C(=O)Cc2cc(NC(=O)Cn3cnnn3)ccc2O[C@H]1CN(C)C(=O)Nc1ccc2c(c1)OCO2	inactive: 0.983
CCOC(=O)C[C@H]1CCCNC1	inactive: 1.02
OC[C@@H](O)[C@@H](O)[C@@H](O)[C@@H](O)[C@@H](O)CO	inactive: 1
C[C@@H]1CCCCO[C@@H](CN(C)C(=O)c2ccncc2)[C@@H](C)CN([C@H](C)CO)C(=O)c2cc(NC(=O)NC3CCCCC3)ccc2O1	inactive: 0.957
C[C@@H]1CN([C@@H](C)CO)C(=O)c2cc(NS(C)(=O)=O)ccc2O[C@H]1CN(C)C(=O)Nc1ccc2c(c1)OCO2	inactive: 0.975
C[C@@H]1CN([C@H](C)CO)C(=O)c2cc(NC(=O)NC3CCCCC3)ccc2O[C@@H](C)CCCCO[C@H]1CN(C)S(=O)(=O)c1ccc(F)cc1	inactive: 1.02
COc1cc2nc(N3CCCN(Cc4ccccc4)CC3)nc(Nc3ccc(F)c(Cl)c3)c2cc1OC	inactive: 1.02
C[C@@H]1CCCCO[C@@H](CN(C)C(=O)Nc2cccc3ccccc23)[C@H](C)CN([C@H](C)CO)C(=O)c2cc(NC(=O)C3CCCCC3)ccc2O1	inactive: 1.03
Cc1ccc(S(=O)(=O)N(C)C[C@H]2OCCCC[C@@H](C)Oc3ccc(NC(=O)Nc4ccc5c(c4)OCO5)cc3C(=O)N([C@@H](C)CO)C[C@H]2C)cc1	inactive: 1.03

Compound	relative growth
C[C@@H]1CN([C@H](C)CO)C(=O)c2cccc(NC(=O)c3ccc(-c4nccs4)cc3)c2O[C@H]1CN(C)Cc1ccc(Cl)c(Cl)c1	inactive: 1.03
Cn1nnc2c(C(N)=O)ncn2c1=O	inactive: 1.06
COc1ccc(CCNC(=O)[C@@H]2c3ccccc3C(=O)N(CC34CC5CC(CC(C5)C3)C4)[C@H]2c2ccc(CO)cc2)cc1	inactive: 1
COc1ccccc1NC(=O)N(C)C[C@H]1Oc2cc(Br)ccc2S(=O)(=O)N([C@H](C)CO)C[C@H]1C	inactive: 1.04
C[C@H](CO)N1C[C@H](C)[C@@H](CN(C)C(=O)c2ccncc2)OCCCC[C@H](C)Oc2ccc(NS(=O)(=O)c3cn(C)cn3)cc2C1=O	inactive: 0.973
O=C1C=CC(=O)N1c1ccc(O)cc1	inactive: 0.881
C[C@H](CO)N1C[C@H](C)[C@H](CN(C)Cc2ccc(F)cc2)OCc2ccccc2-c2c(n(C)c3ccccc23)C1=O	inactive: 1.01
C[N+](C)(C)CCCCNC(=O)[C@H]1C[C@H]2C(=O)N[C@@H](CCCC[N+](C)(C)C)C(=O)N2[C@H]1c1ccc(O)cc1	inactive: 1.01
CN(C)CC[C@H](CSc1ccccc1)Nc1ccc(S(=O)(=O)NC(=O)c2ccc(N3CCN(Cc4ccccc4-c4ccc(Cl)cc4)CC3)cc2)cc1[N+](=O)[O-]	inactive: 1.03
C[C@@H]1CN([C@H](C)CO)C(=O)c2cc(NS(=O)(=O)c3ccc(Cl)cc3)ccc2O[C@@H]1CN(C)Cc1ccc(C(F)(F)F)cc1	inactive: 1.04
COc1cccc(O)c1O	inactive: 0.984
O=C(C[C@H]1CC[C@@H](NC(=O)c2cnccn2)[C@@H](CO)O1)NCc1ccccc1F	inactive: 1.03
C[C@@H]1CN([C@H](C)CO)C(=O)c2cccc(NC(=O)C3CC3)c2O[C@H]1CN(C)Cc1ccc(C(=O)O)cc1	inactive: 0.97
CC(C)(C)NC(=O)[C@@H]1CN(Cc2cccnc2)CCN1C[C@@H](O)C[C@@H](Cc1ccccc1)C(=O)N[C@@H]1c2ccccc2C[C@@H]1O	inactive: 0.993
C[C@H]1CN([C@@H](C)CO)C(=O)c2cccc(NS(=O)(=O)c3cn(C)cn3)c2O[C@H]1CN(C)C(=O)Nc1ccccc1	inactive: 1.03
COCCOC(=O)N1C(=O)[C@@]2(c3cc(C#CC4=CCCCC4)ccc31)[C@H](C(=O)N1CCCCCCC1)[C@H]1C(=O)O[C@H](c3ccccc3)[C@H](c3ccccc3)N1[C@@H]2c1ccc(OCCO)cc1	inactive: 1.06
CCCNC(=O)N1C[C@]2(CN(C2)S(=O)(=O)c2cccc(c2)OC)c2c(n(c3cc(ccc23)OC)C)[C@H]1CO	inactive: 0.984
COc1ccc(C(N)=S)cn1	inactive: 0.961
CC=CC1=C(C(=O)O)N2C(=O)C(NC(=O)C(N)c3ccc(O)cc3)C2SC1 (centres undefined)	inactive: 1.08
